# Data taken from PubChem BioAssay AID1159614 (National Center for Advancing Translational Sciences (NCATS), 2016).
# Hit rate of the full screen: of about 45,000 compounds, about 65 (0.1%) were called active. The call rests on the fitted dose curve; in most records, active means well fitted activation curve with a large enough effect; inconclusive means small, poorly fitted or top-dose-only effect; inactive means no such curve, though single readings can be large or run the other way. The list shows a part of the results.
# Target: Galactocerebrosidase (Homo sapiens) (UniProt P54803)
# Chain of UniProt P54803 (P54803 whole entry, looked up): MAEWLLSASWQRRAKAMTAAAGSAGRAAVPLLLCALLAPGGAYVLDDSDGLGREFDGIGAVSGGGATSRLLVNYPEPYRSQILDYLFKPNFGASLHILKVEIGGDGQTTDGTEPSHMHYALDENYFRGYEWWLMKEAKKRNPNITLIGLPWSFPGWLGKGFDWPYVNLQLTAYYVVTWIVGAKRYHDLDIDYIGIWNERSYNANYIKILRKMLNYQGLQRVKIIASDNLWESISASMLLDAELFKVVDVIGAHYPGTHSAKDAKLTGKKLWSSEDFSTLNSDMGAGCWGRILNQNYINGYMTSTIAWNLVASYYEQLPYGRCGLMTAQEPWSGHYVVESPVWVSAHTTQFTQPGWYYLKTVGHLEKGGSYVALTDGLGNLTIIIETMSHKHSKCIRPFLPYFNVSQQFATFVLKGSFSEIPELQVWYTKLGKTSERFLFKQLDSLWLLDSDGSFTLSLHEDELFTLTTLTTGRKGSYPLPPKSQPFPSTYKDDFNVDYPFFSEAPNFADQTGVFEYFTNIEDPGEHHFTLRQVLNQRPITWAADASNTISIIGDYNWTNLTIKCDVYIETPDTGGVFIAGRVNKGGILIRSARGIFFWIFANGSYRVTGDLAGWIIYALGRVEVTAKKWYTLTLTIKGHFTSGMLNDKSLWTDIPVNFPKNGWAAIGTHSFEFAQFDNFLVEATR
# Assay: A Novel Cell-Based Assay to Identify Small Molecules for B -Galactocerebrosidase; further: 0% is about no effect; nearly all actives have a fitted effect of over 65% in size
# Details: 145M-Twi-hGALC-G270D cells (Twitcher mouse brain line with human GALC G270D), HMU-beta-Gal fluorescence, 48 h; series mostly up to 57.5 µM; activation: at the top concentration
# How it was run: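 Live 145M-Twi cells (Twitcher mouse brain-derived, GALC-null) stably expressing human GALC-G270D, with a wild-type GALC line, were compound-treated. Residual GALC activity was then read as fluorescence from 0.1 mM final HMU-β-gal at pH 5.2; higher signal means activation.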
row,SMILES,activation
1,CCOC(=O)N1CCc2c(sc(NCc3cccs3)c2C(=O)Nc2cc(OC)ccc2OC)C1,inactive: 1.13%
2,CCOC(=O)c1nnn(C(CC)C(=O)Nc2c(C)cccc2C)c1C(=O)OCC (stereo not drawn),inactive: -22.4%
3,CC(C)c1ccc(Nc2cc(C(=O)NCc3cccs3)c3ccccc3n2)cc1,inactive: -7.48%
4,CCOc1ccc(-c2cccc(NS(=O)(=O)c3ccc(Cl)s3)c2)nn1,inactive: -15.6%
5,CCc1ccccc1NC(=O)CCCN1C(=O)COc2ccc(C)cc21,inactive: -1.7%
6,CCNc1nc(Oc2ccc(OCC(=O)OC)nn2)nc(N2CCOCC2)n1,inactive: -17.1%
7,CCOc1ccc2nc(N3CCCC(C(=O)NCc4ccc(OC)cc4)C3)sc2c1 (stereo not drawn),inactive: -5.78%
8,Cc1ccc(NC(=O)N2CCN(c3nnc(C)c4c(C)n(-c5ccccc5)nc34)CC2)c(Cl)c1,inactive: -17.3%
9,CCc1ccc(-c2ccc3nnc(SCC(=O)Nc4cccc(C(C)=O)c4)n3n2)cc1,inactive: -21.1%
10,CCCNC(=O)Cn1c(=O)cc(C)c2c(C)nn(-c3cccc(F)c3)c21,inactive: -1.89%
11,COc1cc(Cl)c(C)cc1NC(=O)NC1COc2ccccc2C1 (stereo not drawn),inactive: -2.71%
12,Cc1cccc(Oc2nc3c(c(=O)n(C)c(=O)n3C)n2C)c1C,inactive: -16.9%
13,Cc1ccccc1-c1nn2c(=O)cc(CN3CCN(C(=O)c4ccccc4Br)CC3)nc2s1,inactive: -12.9%
14,N#Cc1c(-c2ccccc2)cc(-c2ccccc2)nc1SCC(=O)Nc1ccc(Cl)cc1,inactive: -15.1%
15,CCOC(=O)N1CCN(C(=O)c2cnn(-c3cccc(F)c3)c2-n2cccc2)CC1,inactive: -7.5%
16,CCc1ccccc1NC(=O)C(CCSC)NS(=O)(=O)c1ccc2c(c1)oc(=O)n2C (stereo not drawn),inactive: -0.871%
17,COc1ccc(CCNC(=O)Cn2c(-c3cccs3)cc3cc(F)ccc32)cc1OC,inactive: -24.5%
18,Cc1onc(-c2ccccc2)c1C(=O)Cl,inactive: -14.8%
19,COc1cccc(CNC(=O)c2ccc(CS(=O)c3ccccc3)o2)c1 (stereo not drawn),inactive: 7.54%
20,COc1ccc(CCNC(=O)CN2C(=O)COc3ccccc32)cc1OC,inactive: -28.4%
21,COc1ccc(NC(=O)c2oc3ccccc3c2NC(=O)c2cc(OC)c(OC)c(OC)c2)cc1,inactive: 13.6%
22,COc1ccccc1OCC(=O)Nc1cc(-c2ccc(C)cc2)no1,inactive: -20.7%
23,Fc1cccc(CSc2nc(NCCc3ccccc3)c3ccccc3n2)c1,inactive: 7.04%
24,Oc1c(C(c2ccc(Cl)cc2)N2CCOCC2)sc2nc(-c3ccco3)nn12 (stereo not drawn),inactive: -5.18%
25,CC1CCN(S(=O)(=O)c2ccc3nc(N4CCN(c5ccccc5)CC4)ccc3c2)CC1,inactive: -13.9%

row,SMILES,activation
1,COc1cc(NS(=O)(=O)c2cccs2)cc(OC)c1,inactive: -11.6%
2,CC(=O)c1cc(-c2ccc(F)cc2)n(CC(=O)NCc2ccc(C)cc2)c1C,inactive: -14.2%
3,CCN(CC)c1ccc(NC(=O)c2sc3nc(-c4ccccc4)cn3c2C)cc1,inactive: -12.1%
4,CCCn1c2ccccc2c2cnn(CC(=O)NCCc3cc(OC)ccc3OC)c(=O)c21,inactive: -4.77%
5,CCOC(=O)c1cccc(NC(=O)NCc2ccc3c(c2)CCN3C(=O)CC)c1,inactive: -9.17%
6,Cc1nc(-c2ccc(F)cc2)sc1CCNC(=O)C(=O)Nc1ccc2c(c1)OCO2,inactive: -6.13%
7,Cc1ccc(CSc2ncccc2C(=O)O)cc1,inactive: -9.72%
8,Cc1ccc(S(=O)(=O)N2CCCc3cc(NC(=O)c4ccc(C(C)(C)C)cc4)ccc32)cc1,inactive: -3.08%
9,COc1cccc(-c2nc(CS(=O)(=O)CC(=O)NCCCc3ccccc3)c(C)o2)c1,inactive: -19.2%
10,CCCN(C(=O)NCc1noc2ccc(C)cc12)c1ccc(Cl)c(Cl)c1,inactive: -7.69%
11,CC1=C(C(=O)Nc2cccc(C(F)(F)F)c2)C(c2ccccn2)n2ncnc2N1 (stereo not drawn),inactive: -22.3%
12,CCc1ccc(C(=O)c2cn(CC(=O)Nc3ccc(OC)c(Cl)c3)c3nc(C)ccc3c2=O)cc1,inactive: 0.242%
13,Cc1ccc(Cl)cc1NC(=O)Cn1cc(S(=O)(=O)Cc2ccccc2Cl)c2ccccc21,inactive: -6.98%
14,CCC(=O)Nc1ccccc1-c1nc2ccccc2n(CC(=O)c2ccc(Br)cc2)c1=O,inactive: 5.91%
15,COc1ccc(N2CCN(C(=O)c3nn(C)c4c3CSc3ccccc3-4)CC2)cc1,inactive: -9.32%
16,Cc1cn([C@H]2C[C@H](N=[N+]=[N-])[C@@H](CO)O2)c(=O)[nH]c1=O,inactive: -8.82%
17,CCCc1cc(=O)[nH]c(SCc2nc(-c3ccc(OC)cc3)no2)n1,inactive: 12.2%
18,Cc1cc(C)cc(OCC(=O)NCC2(N3CCOCC3)CCCCC2)c1,inactive: -1.2%
19,O=C(Cn1c(SCCOc2ccccc2Cl)nc2ccccc21)N1CCCCC1,inactive: -33%
20,O=C(C1CCN(c2ncnc3c2nc2n3CCCCC2)CC1)N1CCN(c2ccccc2)CC1,inactive: 4.99%
21,CCOC(=O)c1ccccc1NC(=O)c1sc2ncn(CC)c(=O)c2c1C,inactive: -9.71%
22,N#Cc1ccccc1Cn1c(=O)n(-c2ccc(F)c(Cl)c2)c(=O)c2sccc21,inactive: 1.81%
23,COc1ccc(CC(=O)NCCc2csc(-c3cccc(F)c3)n2)cc1OC,inactive: -11%
24,Cc1ccc(C)c(NC(=O)Cn2c(=O)n(Cc3ccco3)c(=O)c3ccc(C(=O)NC4CCCC4)cc32)c1,inactive: -24.2%
25,CCOc1ccccc1Nc1sc(C(=O)c2ccc(Cl)cc2)c(N)c1C#N,inactive: 16.4%

row,SMILES,activation
1,COc1ccc2c(c1)C(=O)N(CCc1ccc(S(=O)(=O)NC(=O)NC3CCCCC3)cc1)C(=O)C2(C)C,inactive: -16.2%
2,O=C(c1ccc(CSc2nc3ccncc3n2Cc2ccccc2F)cc1)N1CCCCC1,inactive: -12%
3,CCOc1ccc(NC(=O)NCCCN2CCN(c3ccc(OC)cc3)CC2)cc1,inactive: -13.3%
4,CC(C)c1ccc(NC(=O)CNC(=O)Cn2ccc3ccccc3c2=O)cc1,inactive: 0.0874%
5,CCc1ccc2c(c1)c(=O)c(C(=O)c1ccc(C)cc1)cn2CC(=O)Nc1ccc2c(c1)OCCO2,inactive: -10.8%
6,Cc1ccccc1NC(=O)Cn1c(=O)n(Cc2ccco2)c(=O)c2cccnc21,inactive: -21.7%
7,Cc1ccc(-c2cc(C(=O)NCCc3ccccc3)c3ccccc3n2)cc1C,inactive: 11.4%
8,O=C(NCCc1ccccc1)c1cc(-c2ccccc2)nc2n[nH]c(-c3ccccc3)c12,inactive: -4.16%
9,O=C(NCc1ccc(F)cc1)c1cccc(N2CCCS2(=O)=O)c1,inactive: -14.7%
10,CN(C)c1ccc(/C=C(\C#N)c2nc3ccccc3c(=O)[nH]2)cc1,inactive: -31.5%
11,Cc1ccc(Cl)cc1NC(=O)C1CCCN(S(=O)(=O)c2c(C)noc2/C=C/N(C)C)C1 (stereo not drawn),inactive: -9.77%
12,COC(=O)c1c(NC(=O)CCCOc2ccccc2)sc2c1CCC(C)C2 (stereo not drawn),inactive: -12.5%
13,O=C(Nc1ccccc1C(=O)OCc1cc(=O)n2ccsc2n1)c1cccc(F)c1,inactive: -0.778%
14,Cc1cc(Nc2cccc(Cl)c2)nc2ccc(NC(=O)c3ccc(F)cc3Cl)cc12,inactive: 1.49%
15,Cc1ccc2nc(/C(C#N)=C/c3ccc(-c4ccc(F)cc4F)o3)[nH]c2c1,inactive: -20.1%
16,Fc1ccc(C2=NC(c3cccc(C(F)(F)F)c3)=Nc3ccccc3N2)cc1,inactive: -12.7%
17,CCC(=O)N1CCc2cc(S(=O)(=O)CCC(=O)N(C)c3ccc(OC)cc3)ccc21,inactive: -12.8%
18,O=C(c1ccc(CS(=O)c2ccccc2Cl)o1)N1CCN(c2ccccc2F)CC1 (stereo not drawn),inactive: -8.54%
19,CN(C)CCN(Cc1ccc(Cl)cc1)c1ccccn1,inactive: -14.8%
20,COc1ccccc1-c1c(C)nn2c(C(F)(F)F)cc(-c3ccccc3)nc12,inactive: -11.7%
21,Cc1ccc(CN2CCC(CNC(=O)Nc3c(C)cccc3C)C2)cc1 (stereo not drawn),inactive: -0.853%
22,CSc1cccc(NC(=O)c2ccc3c(c2)c(C)c(C)n3Cc2ccc(F)cc2)c1,inactive: -15.5%
23,Cc1cc(C)c2c(CC(=O)Nc3nnc(CC(C)C)s3)coc2c1,inactive: -17%
24,CC(C)NS(=O)(=O)c1ccc(OCC(=O)N2CCN(c3ccccc3F)CC2)cc1,inactive: -14.8%
25,CCc1ccc(S(=O)(=O)c2cn(C)c3cc(N4CCN(CC)CC4)c(F)cc3c2=O)cc1,inactive: -14.7%

row,SMILES,activation
1,COc1ccc(CCCc2nnc(SCC(=O)Nc3ccc(C)c(C)c3)o2)cc1,inactive: -8.6%
2,CC(C)(C)c1ccc(OCC(=O)Nc2c(C(=O)c3ccc(F)cc3)oc3ccccc23)cc1,inactive: -14.8%
3,COc1cc(C(=O)NCCSc2c(-c3ccccc3)[nH]c3ccccc23)cc(OC)c1OC,inactive: -3.65%
4,O=C(CCC1N=C2c3ccccc3N=C(SCc3cccc(Cl)c3)N2C1=O)NCc1cccs1 (stereo not drawn),inactive: -0.44%
5,CCC(=O)Nc1cccc(-c2cn3c(C)csc3n2)c1,inactive: -14.7%
6,COc1cccc(C(=O)N(Cc2cccc(Cl)c2)Cc2ccco2)c1,inactive: -14.7%
7,Cc1nn(C)c2c1c(-c1ccccc1)cc(=O)n2CC(=O)NC(C)(C)C,inactive: -5.77%
8,CCC(C)n1c(=N)c(S(=O)(=O)c2ccccc2)cc2c(=O)n3ccccc3nc21 (stereo not drawn),inactive: -13%
9,Cc1ccc(NC(=O)Cn2c(=O)nc(-c3ccccc3F)c3cc(Cl)ccc32)c(Br)c1,inactive: -9.66%
10,NS(=O)(=O)Cc1noc2ccccc12,inactive: -18.5%
11,CCOC(=O)c1ccccc1NC(=O)CSc1ncc2c(n1)-c1ccccc1N(CC)S2(=O)=O,inactive: -17.9%
12,CCOc1ccc(S(=O)(=O)N(CC(=O)NCCSCc2ccccc2)c2ccccc2)cc1,inactive: 1.24%
13,CCOc1ccccc1NC(=O)N1CCN(Cc2cc(=O)n3nc(-c4ccc(C)cc4)sc3n2)CC1,inactive: -7.28%
14,COc1cc2nc(SCc3ccc(F)cc3)n3nc(CCn4c(C)nc5ccccc54)nc3c2cc1OC,inactive: -16.4%
15,CCCSC1=NC2(CCN(C(=O)NC3CCCCC3)CC2)N=C1c1ccc(Cl)cc1,inactive: -6.22%
16,Cc1ccc(CN2CCCN(Cc3c(C)cc(C)cc3C)S2(=O)=O)cc1,inactive: -8.43%
17,Cc1cccc(CSc2nc(-c3cccc(C)c3)nc3c2Cc2c(CO)cnc(C)c2O3)c1,inactive: -9.18%
18,Cc1ccc(CNC(=O)CCS(=O)(=O)c2cc3c(cc2C)NC(=O)CO3)cc1,inactive: -0.677%
19,O=C(CSc1nc2c(oc3ccccc32)c(=O)n1Cc1ccco1)Nc1ccccc1,inactive: -12.6%
20,Cc1ccc(N2CCN(S(=O)(=O)c3c(C)[nH]c(=O)[nH]c3=O)CC2C)cc1 (stereo not drawn),inactive: -16%
21,Cc1nn(Cc2noc(C(=O)NC(C)c3ccccc3)n2)c(C)c1Br (stereo not drawn),inactive: -12.9%
22,COc1cc(Cl)c(C)cc1NC(=O)Cn1cc(S(=O)(=O)N2CCC(C)CC2)c2ccccc2c1=O,inactive: -1.33%
23,CCCN(CCC)c1nn2c(=O)c(C(=O)NCc3cc(Br)ccc3OC)cnc2s1,inactive: -20.6%
